Data on 87 molecules can be found in ChEMBL document CHEMBL4888484, “Replenishing the malaria drug discovery pipeline: Screening and hit evaluation of the MMV Hit Generation Library 1 (HGL1) against asexual blood stage Plasmodium falciparum ,using a nano luciferase reporter read-out” (2022).

About 540 (0.36%) of roughly 150,000 compounds showed an effect of 50% or more. Some of the results follow.

The test concerns Plasmodium falciparum. Put plainly: Primary screen in NF54 nanoGlo assay, in single point, at 2uM, 72h; a lower Z score goes with more inhibition. Type of test: functional, Erythrocyte. Conditions: timepoint 72 hour.
With `COc1cccc([C@@H]2c3nc[nH]c3CCN2Cc2cnc(OC)nc2)c1`, the “% Inhibition” value was 10% and the Z score was -1.28.
On the same counts, the results for `Cc1ncc(S(C)(=O)=O)c(N2CCC[C@H](C(=O)N3CCCC3)C2)n1` are 9% and -1.27.
Turning to `COc1cccc(S(=O)(=O)N2C3C=CCC2CC3)c1` (centres undefined), the “% Inhibition” value is listed as -6% and the Z score was found to be 0.8.
The matching figures for `CS(=O)(=O)CC1(CON=C(N)c2cccnc2)CC1`: 36% and -0.7.
The matching figures for `NC(=O)c1ccc(NC(=O)CN2CCN(c3ccc(F)cc3)C2=O)cc1`: -7% and 0.85.
The matching figures for `CCN1c2ccccc2C(=O)CS1(=O)=O`: -8% and 0.99.
Turning to `CN(C)c1cnccc1NC(=O)N[C@H]1CCN(C2CCC2)C1=O`, the “% Inhibition” value stood at 0% and the Z score was 0.
As for `CC(CNC(=O)[C@@H](C)c1ccccc1)c1nnn[nH]1` (some centres undefined), the “% Inhibition” value is recorded as -2% and the Z score came to 0.38.
On the same counts, the results for `O=C(NC[C@H]1CCOc2ccccc21)c1cnn(C2CCC2)c1` are 2% and -0.3.
Take `CCC(NC(=O)c1ccc[nH]1)C1CN(Cc2ccccc2)CCO1` (centres undefined): the “% Inhibition” value is on record as 1% and the Z score is given as -0.2.
`CCc1c(C)nn(CC(=O)N(C)Cc2cc(C3CC3)on2)c1C`: the “% Inhibition” value was -9% and the Z score is on record as 1.09.
As for `Cc1nc(C)c(F)c(NCc2ccnc(N)c2)n1`, the “% Inhibition” value amounted to 4% and the Z score is listed as -0.52.
In the case of `COc1ccc(CN2CCN(C(=O)c3ccsc3)CC2)cn1`, the “% Inhibition” value is 4% and the Z score was -0.5.
On the same counts, the results for `COCCC(=O)N[C@H]1CN(C2CCCC2)C[C@@H]1c1ccc(OC)cc1` are 6% and -1.26.
For the molecule `CCN(C(=O)c1cc(S(=O)(=O)N(CC)CC)cn1C)[C@@H](C)COC`, the “% Inhibition” value stood at 10% and the Z score is recorded as -1.26.
On the same counts, the results for `Cc1nnnn1Cc1nc(C(C)(C)C)cs1` are -5% and 0.5.
For the molecule `O=C1CN(Cc2ccccc2)C(=O)[C@@H](Cc2ccc(O)cc2)N1`, the “% Inhibition” value is recorded as -3% and the Z score worked out at 0.5.
On the same counts, the results for `CC(C)COc1nc(-c2cccs2)n(-c2cccc(NC(=O)C(C)C)c2)n1` are 1% and -0.12.
On the same counts, the results for `Cc1ccc2nc(-c3ccccc3Cn3cccn3)[nH]c2c1` are -12% and 1.78.
On the same counts, the results for `CC1(C)CN(C(=O)NCC2COc3ccccc3O2)[C@H]2COC[C@H]21` (some centres undefined) are 7% and -1.53.
For `CC(C)Cc1cc(C(=O)N[C@H]2CCN(c3cnccn3)C[C@@H]2O)nc(N)n1`, the “% Inhibition” value is reported as -8% and the Z score worked out at 1.28.
With `CC1=CC(C)(C)NC(=O)N1c1ccccc1O`, the “% Inhibition” value was -7% and the Z score was determined as 0.83.
For `O[C@@H](CNC1CCCC1)COc1ccc(-c2ccccc2)cc1`, the “% Inhibition” value is -7% and the Z score is reported as 0.84.
The matching figures for `Cc1ncsc1CCNC(=O)c1ccc(CN2CCC(C)CC2)o1`: -8% and 1.24.
On the same counts, the results for `NC(=O)c1ncc(Br)cc1Br` are -2% and 0.23.
The matching figures for `CC1CCC(c2noc([C@H]3CCCS(=O)(=O)C3)n2)CC1` (some centres undefined): -2% and 0.3.
On to `Cc1cc([C@@H](O)CNS(=O)(=O)c2ccccc2)c(C)o1`, for which the “% Inhibition” value was -7% and the Z score came out at 0.78.
`CO[C@@H](C)c1nc(Cn2cc(Cl)c(=O)[nH]c2=O)cs1`: the “% Inhibition” value is recorded as -18% and the Z score was 1.82.
Turning to `COC(=O)c1ccc(CNC(C)(C)CC(=O)OC(C)(C)C)[nH]1`, the “% Inhibition” value is -4% and the Z score came to 0.59.
The matching figures for `Cc1nc(N)sc1-c1ccn(C[C@H]2CCCCO2)n1`: 11% and -1.84.
With `O=C([C@H]1CCCN(C2CCN(c3nccc4occc34)CC2)C1)N1CCCC1`, the “% Inhibition” value was 1% and the Z score is listed as -0.17.
As for `COC(=O)CCc1nc(COc2cc(C)c(C#N)c(C)n2)no1`, the “% Inhibition” value is listed as 0% and the Z score is reported as 0.01.
On the same counts, the results for `O=C(COc1ccccc1)NCC(=O)Nc1nnc[nH]1` are -10% and 1.56.
As to `CCCNc1ncc(CN2CCCCC[C@@H]2CO)cn1`, the “% Inhibition” value was determined as 10% and the Z score is given as -1.54.
`COc1ncccc1NC(=O)COc1c[nH]c(C)cc1=O`: the “% Inhibition” value was determined as 4% and the Z score is on record as -0.58.
The matching figures for `O=C(c1n[nH]c2c1CCCC2)N1CCC(n2c(=O)[nH]c3ccsc3c2=O)CC1`: 1% and -0.23.
The matching figures for `CCN(CC)c1nc(N)cc(-c2cncnc2)n1`: -4% and 0.64.
With `Cc1ccoc1C(=O)Nc1cc(C2CC2)nn1[C@H]1CCS(=O)(=O)C1`, the “% Inhibition” value is -11% and the Z score was found to be 2.31.
The matching figures for `CC(C)c1csc([C@@H](C#N)C(=O)c2cccn2C)n1`: -10% and 1.2.
On the same counts, the results for `O=C(NC[C@@H]1COc2ccccc2C1)c1ccccn1` are -1% and 0.09.
The matching figures for `Cc1nn(Cc2ccc(Cl)cc2)c2nc(C3CC3)cc(C(=O)O)c12`: -40% and 4.74.
For the molecule `COc1ccc2occ(CC(=O)Nc3ccc(S(=O)(=O)Nc4nccc(C)n4)cc3)c2c1`, the “% Inhibition” value is -6% and the Z score is reported as 0.89.
On to `Cc1nn(C)c(S(=O)(=O)N2[C@@H]3CC[C@H]2C[C@@H](c2ccccc2)C3)c1C(F)F`, for which the “% Inhibition” value was -19% and the Z score was found to be 2.6.
On the same counts, the results for `COCCN(Cc1cnn(C)c1)C(=O)NCc1nc2c(C)cccc2o1` are -8% and 1.37.
On to `O=C(CN1CCC[C@H]1c1nc(-c2ccccc2Cl)c[nH]1)NCCc1cccs1`, for which the “% Inhibition” value is -2% and the Z score is 0.35.
On the same counts, the results for `CC(C)(C)c1nc(CNc2nnco2)cs1` are -4% and 0.73.
For `C[C@@H](C(=O)Nc1ccccc1C(F)(F)F)n1cnc2c(N(C)C)ncnc21`, the “% Inhibition” value is -5% and the Z score was found to be 0.77.
The matching figures for `O=C(N[C@@H]1CCC[C@@H]1n1ccnc1)c1ccnc2ccnn12`: 0% and 0.01.
On the same counts, the results for `CN(C(=O)Cc1ccc2c(c1)CCCO2)[C@H]1CCNC1=O` are -7% and 0.93.
Take `CCc1nnsc1C(=O)N1CC[C@@](O)(c2ccccc2)[C@H]2CCCC[C@@H]21`: the “% Inhibition” value was -4% and the Z score amounted to 0.37.
For the molecule `Cc1nnsc1C(=O)N1C[C@@H](F)C[C@H]1CNC(=O)CC(C)(C)C`, the “% Inhibition” value stood at 9% and the Z score was -1.42.
For the molecule `CC(C)C1CCCCC1NCCN1CCOCC1` (centres undefined), the “% Inhibition” value is -3% and the Z score stood at 0.57.
The matching figures for `CC(=O)N[C@@H]1C[C@H]1c1c(F)cccc1Cl`: 1% and -0.17.
`CCN(Cc1noc(C)n1)C[C@H](C)c1ccccc1`: the “% Inhibition” value was -3% and the Z score is 0.33.
On the same counts, the results for `C[C@@H](Cc1ccc2c(c1)CCO2)NS(=O)(=O)Cc1ccccc1Cl` are -2% and 0.29.
Regarding `C[C@H](NS(=O)(=O)C1CCOCC1)c1cccc(-n2cccn2)c1`, the “% Inhibition” value stood at 4% and the Z score was -0.52.
For `CC(C)CCNC1=Nc2ccccc2NC12CCCCCC2`, the “% Inhibition” value is listed as -11% and the Z score amounted to 1.46.
The matching figures for `Cc1ccnc2nc(-c3nc(-c4ccc(Br)o4)no3)nn12`: 1% and -0.1.
On the same counts, the results for `c1sc(C2CN3CCCC3CO2)nc1C1CCCC1` (centres undefined) are 3% and -0.34.
On the same counts, the results for `CC1(C)CCc2ccccc2[C@@H](NCc2nccc(N)n2)C1` are -2% and 0.16.
With `Cn1nc2c(c1NC(=O)COc1ccc(F)c(F)c1)CCCC2`, the “% Inhibition” value is reported as -1% and the Z score worked out at 0.26.
For the molecule `O=C1c2ccccc2CCN1CCNC(=O)N1CCO[C@H]2CCC[C@H]21`, the “% Inhibition” value is -15% and the Z score is on record as 1.74.
With `Cc1[nH]ncc1-c1cc(-c2ccccc2)c2ccccc2n1`, the “% Inhibition” value is listed as 8% and the Z score is listed as -0.96.
The matching figures for `Cc1nccc([C@H](C)NC(=O)C2(S(C)(=O)=O)CCC2)n1`: -1% and 0.11.
Take `Cc1nc(O)cc(CNc2nc3c(s2)c(C)nn3C)n1`: the “% Inhibition” value is listed as -8% and the Z score came out at 0.73.
The matching figures for `C#CCCC1(CCC(=O)N2CCc3cccc(F)c3[C@@H]2C)N=N1`: 3% and -0.43.
As for `COCCNc1nc(CC(=O)N2Cc3ccccc3CO2)cs1`, the “% Inhibition” value is recorded as 7% and the Z score is reported as -0.73.
On the same counts, the results for `COC[C@H](NC(=O)Nc1cc(N2CCCC2=O)ccc1C)c1ccnn1C` are -28% and 2.79.
On the same counts, the results for `CN(Cc1ccon1)C(=O)c1coc(CN2CCN(c3ccccc3F)CC2)n1` are -2% and 0.34.
On the same counts, the results for `O=C(Nc1cccc(F)c1)c1nnc([C@@H]2CCCN2C(=O)Nc2ccccc2C(F)(F)F)s1` are -11% and 1.27.
Consider `COc1nc(C)cc(N(C)CC2(CO)CC2)n1`, for which the “% Inhibition” value is recorded as -17% and the Z score is recorded as 2.11.
The matching figures for `Cc1cccc(-c2nccc(Oc3ccc(C(=O)Nc4ccccc4)cc3)n2)c1`: 1% and -0.09.
As to `O=C(CN1C(=O)c2ccccc2C1=O)OCCOC(c1ccccc1)c1ccccc1`, the “% Inhibition” value is reported as -1% and the Z score was 0.1.
The matching figures for `Fc1ccc(-c2n[nH]cc2CN2CCCC3(C2)OCCO3)cc1`: -13% and 1.76.
On the same counts, the results for `Cc1ccc(-n2ncc3c(N4CCCN(C(=O)NC(C)(C)C)CC4)nc(C)nc32)c(C)c1` are -5% and 0.95.
On to `N#CCC[C@H](C#N)Cn1nc(N2CCCC2)sc1=S`, for which the “% Inhibition” value is on record as -2% and the Z score came out at 0.22.
On the same counts, the results for `N#Cc1cccc(NC(=O)N2CC[C@@H]3CNC[C@@H]32)c1` are 2% and -0.28.
The matching figures for `Cc1c(C(=O)N2CCN(C)Cc3ccccc32)nnn1Cc1ccc(F)cc1F`: -10% and 1.56.
For the molecule `CO[C@@H](C)c1cccc(NCC(=O)Nc2cc(C)nn2C(C)(C)C)c1`, the “% Inhibition” value is on record as 0% and the Z score is given as -0.09.
As for `CN1C(=O)N[C@@H]2CN(C(=O)NC3CCC3)CC[C@@H]21`, the “% Inhibition” value is recorded as -11% and the Z score is reported as 0.97.
Consider `Cc1cc(Cl)ccc1OCC(=O)Nc1ncc(C)c(-c2ccccc2)n1`, for which the “% Inhibition” value is reported as 8% and the Z score is listed as -1.13.
On the same counts, the results for `O=C(N[C@H]1C[C@H]2OCC[C@@H]12)c1ccccc1OCc1ccccc1` are -5% and 0.51.
On the same counts, the results for `N[C@@H]1CCN(C(=O)Cc2ccc(Cl)cc2Cl)C1` are -19% and 2.21.
On to `Cc1nn(CC(=O)N(C)[C@@H](C)c2nccs2)c(=O)n1Cc1ccccc1`, for which the “% Inhibition” value is -5% and the Z score turned out to be 0.64.
The matching figures for `CCCc1cc(C(=O)NC(c2ccccn2)[C@H]2C[C@@H](O)C2)[nH]n1` (some centres undefined): -2% and 0.28.
Take `Cc1cc(OC2CCN(C(=O)[C@@H]3CC=CCC3)CC2)nc(C)n1`: the “% Inhibition” value is reported as -18% and the Z score amounted to 3.47.
The matching figures for `CC1CC(C)CN(c2snnc2C(N)=O)C1` (centres undefined): -22% and 2.62.

In general, % Inhibition refers to the change of the read-out against control, counted positive when it falls.
